Test results from article PMC6760808.
These are yes or no findings as the source states them, for the method shown. Some results given as binding are weak or reduced against the parent protein; the word gives no strength. Sequences can lack the tags named with a protein.

How the values were obtained:
[1] = target: T1, NPHP1-mCh-mito (UniProt O15259); assay: knocksideways (recruitment to the mitochondrial surface, fluorescence microscopy); NPHP-mCh-mito bait on the mitochondrial surface co-expressed with EGFP-tagged nucleoporin in COS-7 cells; fixed 24 hours post-transfection
T1 sequence: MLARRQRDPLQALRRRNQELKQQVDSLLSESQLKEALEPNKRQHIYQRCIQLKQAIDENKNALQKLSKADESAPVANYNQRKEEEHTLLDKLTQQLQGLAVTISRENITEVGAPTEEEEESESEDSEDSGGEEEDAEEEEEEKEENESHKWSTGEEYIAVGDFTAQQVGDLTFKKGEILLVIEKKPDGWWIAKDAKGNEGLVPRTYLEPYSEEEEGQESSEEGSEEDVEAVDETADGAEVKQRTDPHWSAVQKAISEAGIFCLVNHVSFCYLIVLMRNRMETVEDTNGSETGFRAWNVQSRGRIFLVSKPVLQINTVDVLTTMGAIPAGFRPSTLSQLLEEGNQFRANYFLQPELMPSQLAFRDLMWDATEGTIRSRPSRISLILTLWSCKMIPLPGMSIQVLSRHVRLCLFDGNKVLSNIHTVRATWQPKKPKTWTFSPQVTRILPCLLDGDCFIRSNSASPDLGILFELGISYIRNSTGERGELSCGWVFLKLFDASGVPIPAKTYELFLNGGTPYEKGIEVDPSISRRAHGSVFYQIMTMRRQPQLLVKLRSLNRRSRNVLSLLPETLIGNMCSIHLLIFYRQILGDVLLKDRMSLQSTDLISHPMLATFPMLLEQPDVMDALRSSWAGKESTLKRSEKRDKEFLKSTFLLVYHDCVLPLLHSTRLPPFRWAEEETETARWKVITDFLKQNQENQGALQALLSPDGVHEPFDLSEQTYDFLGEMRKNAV

[2] = target: T2, NPHP2-mCh-mito (UniProt Q9Y283); assay: as above
T2 sequence: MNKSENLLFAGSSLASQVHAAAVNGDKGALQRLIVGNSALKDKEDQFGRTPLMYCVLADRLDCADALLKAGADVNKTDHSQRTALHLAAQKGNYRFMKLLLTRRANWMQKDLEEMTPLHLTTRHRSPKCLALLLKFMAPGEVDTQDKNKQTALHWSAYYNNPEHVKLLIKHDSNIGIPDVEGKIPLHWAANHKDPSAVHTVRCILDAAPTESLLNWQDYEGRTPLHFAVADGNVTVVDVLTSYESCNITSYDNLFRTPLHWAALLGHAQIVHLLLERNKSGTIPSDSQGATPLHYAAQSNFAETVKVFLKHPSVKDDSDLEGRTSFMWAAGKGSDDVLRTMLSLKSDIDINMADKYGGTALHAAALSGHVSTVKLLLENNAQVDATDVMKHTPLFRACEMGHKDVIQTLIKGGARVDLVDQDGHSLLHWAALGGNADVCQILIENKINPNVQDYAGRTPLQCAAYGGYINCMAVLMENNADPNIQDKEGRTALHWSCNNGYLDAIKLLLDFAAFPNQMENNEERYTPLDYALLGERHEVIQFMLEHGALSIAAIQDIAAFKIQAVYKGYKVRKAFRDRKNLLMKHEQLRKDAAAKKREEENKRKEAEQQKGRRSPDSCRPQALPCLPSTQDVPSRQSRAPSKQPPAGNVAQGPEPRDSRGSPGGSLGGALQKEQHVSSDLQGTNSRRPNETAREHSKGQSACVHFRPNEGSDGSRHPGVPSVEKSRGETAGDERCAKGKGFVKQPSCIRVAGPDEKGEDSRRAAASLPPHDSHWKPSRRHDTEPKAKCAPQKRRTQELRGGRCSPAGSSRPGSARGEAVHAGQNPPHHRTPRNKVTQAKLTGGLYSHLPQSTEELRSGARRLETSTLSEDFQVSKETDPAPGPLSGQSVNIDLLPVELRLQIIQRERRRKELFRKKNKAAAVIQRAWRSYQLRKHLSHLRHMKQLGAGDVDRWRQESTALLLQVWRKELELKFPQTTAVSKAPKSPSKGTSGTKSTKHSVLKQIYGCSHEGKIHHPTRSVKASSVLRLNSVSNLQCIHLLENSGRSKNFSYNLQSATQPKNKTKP

- binding [1]: no binding
- binding [2]: binds
B1: Nup155-EGFP3 (protein, UniProt O75694 1-1391)
chain: MPSSLLGAAMPASTSAAALQEALENAGRLIDRQLQEDRMYPDLSELLMVSAPNNPTVSGMSDMDYPLQGPGLLSVPNLPEISSIRRVPLPPELVEQFGHMQCNCMMGVFPPISRAWLTIDSDIFMWNYEDGGDLAYFDGLSETILAVGLVKPKAGIFQPHVRHLLVLATPVDIVILGLSYANLQTGSGVLNDSLSGGMQLLPDPLYSLPTDNTYLLTITSTDNGRIFLAGKDGCLYEVAYQAEAGWFSQRCRKINHSKSSLSFLVPSLLQFTFSEDDPILQIAIDNSRNILYTRSEKGVIQVYDLGQDGQGMSRVASVSQNAIVSAAGNIARTIDRSVFKPIVQIAVIENSESLDCQLLAVTHAGVRLYFSTCPFRQPLARPNTLTLVHVRLPPGFSASSTVEKPSKVHRALYSKGILLMAASENEDNDILWCVNHDTFPFQKPMMETQMTAGVDGHSWALSAIDELKVDKIITPLNKDHIPITDSPVVVQQHMLPPKKFVLLSAQGSLMFHKLRPVDQLRHLLVSNVGGDGEEIERFFKLHQEDQACATCLILACSTAACDREVSAWATRAFFRYGGEAQMRFPTTLPPPSNVGPILGSPVYSSSPVPSGSPYPNPSFLGTPSHGIQPPAMSTPVCALGNPATQATNMSCVTGPEIVYSGKHNGICIYFSRIMGNIWDASLVVERIFKSGNREITAIESSVPCQLLESVLQELKGLQEFLDRNSQFAGGPLGNPNTTAKVQQRLIGFMRPENGNPQQMQQELQRKFHEAQLSEKISLQAIQQLVRKSYQALALWKLLCEHQFTIIVAELQKELQEQLKITTFKDLVIRDKELTGALIASLINCYIRDNAAVDGISLHLQDICPLLYSTDDAICSKANELLQRSRQVQNKTEKERMLRESLKEYQKISNQVDLSNVCAQYRQVRFYEGVVELSLTAAEKKDPQGLGLHFYKHGEPEEDIVGLQAFQERLNSYKCITDTLQELVNQSKAAPQSPSVPKKPGPPVLSSDPNMLSNEEAGHHFEQMLKLSQRSKDELFSIALYNWLIQVDLADKLLQVASPFLEPHLVRMAKVDQNRVRYMDLLWRYYEKNRSFSNAARVLSRLADMHSTEISLQQRLEYIARAILSAKSSTAISSIAADGEFLHELEEKMEVARIQLQIQETLQRQYSHHSSVQDAVSQLDSELMDITKLYGEFADPFKLAECKLAIIHCAGYSDPILVQTLWQDIIEKELSDSVTLSSSDRMHALSLKIVLLGKIYAGTPRFFPLDFIVQFLEQQVCTLNWDVGFVIQTMNEIGVPLPRLLEVYDQLFKSRDPFWNRMKKPLHLLDCIHVLLIRYVENPSQVLNCERRRFTNLCLDAVCGYLVELQSMSSSVAVQAITGNFKSLQAKLERLH
